The results in this text go back to article PMC8572878 (Biotechnology Reports, 2021).

The assay deals with wild type IL-17RA (UniProt Q96F46 33-317). Nature of the assay: SPR.

B1: Interleukin-17A (IL-17A), commercial recombinant (ligand)
chain: not shown
The Kd is the concentration at which binding is half-saturated. Molecule B1 came in with a Kd of 1.4 nM.
